Experimental data taken from PubChem BioAssay AID1745853 (National Center for Advancing Translational Sciences (NCATS), 2022).
The other results are listed elsewhere or left out. These are further read-outs of the screen, such as a control signal, another cell line or another target. No call is given for them.

Tests used:
Test in all cases: Primary Screen for Target Class Profiling of Small Molecule Inhibitors of Methyltransferases
[1] = target: Glycine N-methyltransferase (Homo sapiens) (UniProt Q14749); conditions: purified enzyme, MTase-Glo SAH luminescence; measured here: GNMT inhibition; at 40 µM; stronger effect = lower value
From the text: (§1) PI: Matthew D. Hall Ph.D. and Quinlin M. Hanson Ph.D.
(§2) National Center for Advancing Translational Sciences (NCATS)
(§3) National Institute of Health (NIH), Rockville, MD
(§4) Target class profiling (TCP) is a chemical biology approach amenable to investigating understudied biological targets. TCP is achieved by developing a generalizable assay platform and applying it to screen a curated set of compound libraries against representative members of a target class. Small molecule methyltransferases (SMMTase) are a subclass of methyltransferase that act on metabolites to modulate signaling pathways, metabolize xenobiotics, or balance the available methyl pool. We screened four curated libraries totaling 27,574 unique compounds against the SMMTases nicotinamide N-methyltransferase (NNMT), phenylethanolamine N-methyltransferase (PNMT), histamine N-methyltransferase (HNMT), glycine N-methyltransferase (GNMT), catechol O-methyltransferase (COMT), and guanidinoacetate N-methyltransferase (GAMT). The data generated by this TCP can be leveraged for informed tool molecule development. For example, in the associated publication we identified a chemotype of HNMT-selective inhibitors. Additionally, we identified a putative SMMTase-selective inhibitor with potential as a tool molecule for studying broader methyltransferase biology.
(§5) High-through put screening assays were developed at the National Center for Advancing Translational Science (NCATS) for the enzymes NNMT, PNMT, HNMT, GNMT, COMT, and GAMT. Enzymatic activity was measured as a function of SAM cofactor conversion using the MTase Glo kit (Promega) for all enzymes. All assays were performed in 1536-well format with substrates and SAM concentrations at KM values. Enzyme concentration and assay timing were optimized for 10-20% SAM conversion. Initial screening of 27,574 compounds was done as single-point assays using the highest compound concentration (40 uM). […] These compounds were replated in 11-point dose response and assayed against NNMT, PNMT, HNMT, GNMT, COMT, GAMT, and a counter-assay. The IC50 and efficacy (maximal response) values were determined for each dose-response curve. These values are also accounted for in the area under the curve (AUC) values.
(§6) PROTOCOL TABLE (as described by Inglese J, Shamu CE and Guy RK. 2007)
(§7) SEQUENCE No. (e.g., 1, 2, 3, etc.); […] (e.g., Cells, Incubation, Reagent, etc.); VALUE; DESCRIPTION.
(§8) 1; Reagent; 2 uL; SMMTase Enzyme (2x) in reaction buffer, columns 1- 48.
(§9) 2; Reagent; 1 uL; SAM (4x) in reaction buffer, columns 1-48.
(§10) 3; Controls; 23 nL; DMSO in column 4; sinefungin in DMSO (0 uM - 40 uM) in 7-point 1:2 dilution series (n = 2) in column 2.
(§11) 4; Compounds; 23 nL; Columns 5-48.
(§12) 5; Reagent; 1 uL; Substrate (4x) in reaction buffer, columns 2-48.
(§13) 6; Time; 20-30 min; Incubation.
(§14) 7; Reagent; 1 uL; MTase-Glo reagent (5X), columns 1-48.
(§15) 8; Time; 30 min; Incubation.
(§16) 9; Reagent; 5 uL; MTase-Glo Detection reagent, columns 1-48.
(§17) 10; Time; 30 min; Incubation, luminescence evolution.
(§18) 11; Detection; Luminescence; ViewLux uHTS Microplate Imager (PerkinElmer).
(§19) NOTES (numbers refer to Sequence numbers above)
(§20) 1, 2, 5. White Medium Binding Greiner 1536-well plates (Cat #789175-F, Greiner Bio-One, Monroe, NC); Reaction buffer: 50 mM Tris, pH 8.0, 3 mM MgCl2, 1 mM EDTA, 50 mM NaCl, 1 mM DTT, and 0.1 mg/mL BSA. Evaporation was prevented by covering assay plates with metal lids containing holes to allow gas diffusion.
(§21) 1. Six SMMTase were profiled: HNMT, GNMT, PNMT, COMT, NNMT, GAMT
(§22) 5. The corresponding substrate was used for each enzyme: HNMT - 5.3 uM Histamine; GNMT - >500 uM Glycine; PNMT - 16.2 uM Norephinephrine; COMT - 13.7 uM Norephinephrine; NNMT - 3.8 uM Nicotinamide; GAMT - 2.5 uM Guanidinoacetate.6, 8, 10. Room temperature
(§23) 6. Final reaction conditions: 10 nM COMT, 5 uM SAM, 15 uM norepinephrine, 50 mM Tris, pH 8.0, 3 mM MgCl2, 1 mM EDTA, 50 mM NaCl, 1 mM DTT, and 0.1 mg/mL BSA; refer to tables 2 and S1 for specific timing.
8. […]

[2] = target: Guanidinoacetate N-methyltransferase (Homo sapiens) (UniProt Q14353); conditions: purified enzyme, MTase-Glo SAH luminescence; measured here: GAMT inhibition; at 40 µM; stronger effect = lower value
From the text: as §1, §2, §3, §4, §5, §6, §7, §8, §9, §10, §11, §12, §13, §14, §15, §16, §17, §18, §19, §20, §21, §22, §23
8. […]

[3] = target: Histamine N-methyltransferase (Homo sapiens) (UniProt P50135); conditions: purified enzyme, MTase-Glo SAH luminescence; measured here: HNMT inhibition; at 40 µM; stronger effect = lower value
From the text: as §1, §2, §3, §4, §5, §6, §7, §8, §9, §10, §11, §12, §13, §14, §15, §16, §17, §18, §19, §20, §21, §22, §23
8. […]

[4] = target: Nicotinamide N-methyltransferase (Homo sapiens) (UniProt P40261); conditions: purified enzyme, MTase-Glo SAH luminescence; measured here: NNMT inhibition; at 40 µM; stronger effect = lower value
From the text: as §1, §2, §3, §4, §5, §6, §7, §8, §9, §10, §11, §12, §13, §14, §15, §16, §17, §18, §19, §20, §21, §22, §23
8. […]

[5] = target: Phenylethanolamine N-methyltransferase (Homo sapiens) (UniProt P11086); conditions: purified enzyme, MTase-Glo SAH luminescence; measured here: PNMT inhibition; at 40 µM; stronger effect = lower value
From the text: as §1, §2, §3, §4, §5, §6, §7, §8, §9, §10, §11, §12, §13, §14, §15, §16, §17, §18, §19, §20, §21, §22, §23
8. […]
% is set by controls: 0 for no effect and ±100 for the full control effect.

Compound | activity change, negative = inhibition [1] [%] | activity change, negative = inhibition [2] [%] | activity change, negative = inhibition [3] [%] | activity change, negative = inhibition [4] [%] | activity change, negative = inhibition [5] [%]
Cc1cccc(NC(=O)CSc2nnc3n(Cc4ccc(F)cc4)c(=O)c4ccccc4n23)c1 | 2.89 | 4.75 | 9.35 | -0.999 | 2.25
CCN1C(=O)c2cc(C(=O)Nc3cccc(Cl)c3)nn2CC1(C)C(=O)NC1CCCC1 (stereo not drawn) | -1.2 | -0.253 | -2.11 | -5.65 | -2.96
CC(=O)O[C@@H]1C[C@@]23C[C@@]24CC[C@H](OC2OC[C@@H](O)[C@H](O)[C@H]2O)C(C)(C)[C@@H]4CC[C@H]3[C@]2(C)CC3OC4(C[C@@H](C)C3[C@@]12C)OCC1(C)OC14 (stereo partly drawn) | 4.42 | 3.54 | 8.37 | -9.36 | -1.65
CCN(CC)CCCNC(=O)CCc1nnc2n(CCc3ccccc3)c(=O)c3ccccc3n12 | -3.65 | 0.238 | -44.5 | 11.4 | 2.52
COc1cccc(CN2C(=O)c3c(-n4cccc4)c4ccccc4n3CC2(C)C(=O)NC2CCCC2)c1 (stereo not drawn) | -1.45 | 8.34 | -2.95 | -3.95 | 0.727
C=C1C(=O)OC2CC(C)=C(C(C)CCCOC(C)=O)C(OC(=O)CC(C)CC)C12 (stereo not drawn) | 0.406 | 12.1 | 7.55 | -7.14 | 4.64
COCC1CN(C(C)=O)CC12CCN(C(=O)C1CC=CC1)CC2 (stereo not drawn) | -8.77 | -7.99 | -3.98 | -11.8 | -5.96
CC(C)(C)c1cc2n(n1)CC(C)(C(=O)NC1CCCCC1)N(Cc1cccc(Cl)c1)C2=O (stereo not drawn) | -5.56 | -4.39 | 2.68 | -11.1 | -2.5
N#Cc1cccc(CN2CCC(N(Cc3cccnc3)C(=O)Nc3ccccc3-c3ccccc3)CC2)c1 | – | 6.41 | – | -18.3 | -11.6
Cc1nc(C)c(C(=O)N2CCC(N3C(=O)C4(CCCC4)C3c3scnc3C)CC2)s1 (stereo not drawn) | -5.58 | -6.6 | -2.39 | -9.65 | -2.67
CC1=C2C(=O)C=C(CO)C2C2OC(=O)C(CS(=O)(=O)O)C2C(OC(=O)Cc2ccc(O)cc2)C1 (stereo not drawn) | -4.72 | 0.607 | 11.2 | -11.5 | -6.93
CCC(C)NC(=O)c1ccc2c(=O)n(C(C)C)c3nn(Cc4ccc(Cl)cc4)c(=O)n3c2c1 (stereo not drawn) | -3.52 | 0 | 1.81 | -3.07 | 1.77
COC(=O)N1CCC(n2ncc3c(N4CCOCC4)nc(-c4ccc(NC(=O)Nc5ccc(CO)cc5)cc4)nc32)CC1 | -6.04 | 7.56 | 5.77 | -10.5 | 3.67
CN[C@@H](C)C(=O)N[C@H]1CN(C(=O)CC(C)C)CC[C@H]2CC[C@@H](C(=O)NC(c3ccccc3)c3ccccc3)N2C1=O | -5.54 | -4.99 | -0.293 | -18.5 | -1.6
C=CC(=O)Nc1cc(-n2c(=O)ccc3cnc4ccc(-c5ccc(NS(C)(=O)=O)cc5)cc4c32)ccc1C | -35.1 | -19.2 | -0.494 | -25.5 | -16
COc1ccccc1N1CCN(CCCCN2C(=O)c3ccccc3C2=O)CC1 | -8.94 | 0.45 | -4.21 | -11 | 5.16
O=C(Cn1nc(-c2ccccc2)c2ccccc21)N1CCN(c2cccc(C(F)(F)F)c2)CC1 | 1.77 | 1.73 | 10.8 | 7.86 | 2.83
COCC1OC(OC(C)(C)C2CCC3(C)C=C(C4CCC5C4(C)CC(O)C4OC(C(C)(C)OC6OC(CO)C(O)C(O)C6NC(C)=O)CCC45C)CCC3O2)C(NC(C)=O)C(O)C1O (stereo not drawn) | 2.89 | 15.9 | 5.46 | 3.2 | 2.63
